# Source: PubChem BioAssay AID485360 (National Center for Advancing Translational Sciences (NCATS), 2010)
# Hit rate of the full screen: of about 230,000 compounds, about 1,500 (0.65%) were called active. The inconclusive results got no clear call from the source; some entries with a clear call stand among them for comparison. Calls follow the shape of the dose curve; as a rule, active = well fitted inhibition curve with a large enough effect; inconclusive = small, poorly fitted or top-dose-only effect; inactive = no such curve, though single readings can be large or run the other way. Potencies of inconclusive entries are doubtful fits and often do not repeat.
# Biological target: Lethal(3)malignant brain tumor-like protein 1 (Homo sapiens) (UniProt Q9Y468)
# UniProt Q9Y468, sequence (Q9Y468 whole entry, looked up): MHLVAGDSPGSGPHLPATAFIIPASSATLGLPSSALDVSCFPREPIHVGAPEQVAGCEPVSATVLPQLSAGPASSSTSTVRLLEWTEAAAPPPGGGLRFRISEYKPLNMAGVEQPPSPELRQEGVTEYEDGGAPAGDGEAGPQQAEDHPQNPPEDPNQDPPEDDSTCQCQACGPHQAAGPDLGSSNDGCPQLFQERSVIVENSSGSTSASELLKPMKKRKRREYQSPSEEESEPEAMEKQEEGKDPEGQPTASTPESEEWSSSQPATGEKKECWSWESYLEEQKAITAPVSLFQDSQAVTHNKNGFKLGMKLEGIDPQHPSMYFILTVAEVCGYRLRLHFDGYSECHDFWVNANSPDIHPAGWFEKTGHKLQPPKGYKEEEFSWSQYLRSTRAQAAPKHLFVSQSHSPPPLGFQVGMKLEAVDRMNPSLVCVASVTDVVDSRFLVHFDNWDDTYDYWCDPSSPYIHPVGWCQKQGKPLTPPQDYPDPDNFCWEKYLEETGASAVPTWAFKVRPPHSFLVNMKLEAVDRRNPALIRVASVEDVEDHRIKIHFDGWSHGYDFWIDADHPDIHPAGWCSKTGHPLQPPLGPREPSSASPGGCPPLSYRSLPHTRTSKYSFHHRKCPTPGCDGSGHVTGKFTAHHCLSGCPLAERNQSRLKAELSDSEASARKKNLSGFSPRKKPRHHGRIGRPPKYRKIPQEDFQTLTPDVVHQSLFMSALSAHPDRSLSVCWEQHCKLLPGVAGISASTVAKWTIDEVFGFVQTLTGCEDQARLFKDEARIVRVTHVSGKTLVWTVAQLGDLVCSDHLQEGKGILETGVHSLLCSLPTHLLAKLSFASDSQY
# Experiment: qHTS Assay for the Inhibitors of L3MBTL1; also: nearly all actives have a fitted effect of over 60% in size
# Conditions: AlphaScreen L3MBTL1–H3K9me1 peptide binding; series mostly up to 57.1 µM
# Procedure, shortened: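 L3MBTL1 50 nM + b-AHA-H3(1-15)K9me1 75 nM, 30 min RT; compound added, 30 min RT; streptavidin donor/Ni-chelate acceptor beads 10 ug/mL each final, 30 min RT dark; AlphaScreen read.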
# Potency is read from the fitted curve at half-maximal effect; tags tell the direction and shape of the fitted curve.
row,Structure (SMILES),Potency
1,Cc1cc2nc3c(=O)[nH]c(=O)[nH]c3nc2c([N+](=O)[O-])c1N,"inconclusive: 25.1 µM [inhibitor, single point]"
2,CC1=CC(C)(C)N2C(=O)C(=Nc3ccc(O)cc3)c3cccc1c32,active: 11.2 µM
3,N#Cc1c(-c2ccccc2)cc(-c2ccccc2)nc1SCC(=O)NCC(=O)O,inactive
4,Cc1nnsc1C(=O)N/N=C/c1ccccc1,inactive
5,Cc1ccc(C)c(N=Nc2nc3ccccc3n2C)c1,"inconclusive: 28.2 µM [inhibitor, single point]"
6,Cc1cc(C)n2c(SCC(=O)Nc3ccccc3C#N)nnc2n1,"inconclusive: 39.8 µM [inhibitor, single point]"
7,CCCOc1ccc(NC(=O)CC2C(=O)N(C)C(=S)N2Cc2cccs2)cc1 (configuration not stated),"inconclusive: 10 µM [inhibitor, full curve, poor fit]"
8,CC1CCCCN1C(=O)/C=C/c1ccccc1[N+](=O)[O-] (configuration not stated),"inconclusive: 39.8 µM [inhibitor, single point]"
9,O=C(/C=C/c1ccccc1Cl)N1CCCN(C(=O)/C=C/c2ccccc2Cl)CC1,"inconclusive: 6.31 µM [inhibitor, single point]"
10,N=C1C(c2nc3ccccc3[nH]2)=C(O)CN1NC(=O)c1c[nH]c2ccccc12,"inconclusive: 39.8 µM [inhibitor, partial curve, poor fit]"
11,O=C(O)c1ccccc1/C=N/NC(=O)c1cc(-c2ccco2)nc2ccccc12,"inconclusive: 39.8 µM [inhibitor, single point]"
12,O=C(NC(=S)Nc1cccc(CO)c1)c1ccc(-c2ccccc2)cc1,"inconclusive: 0.708 µM [inhibitor, single point]"
13,COc1cc2c(cc1OC)C(c1cc(C)ccc1C)CC(=O)N2 (configuration not stated),inactive
14,Cc1cccc(C)c1OCC(=O)Nn1c(=O)[nH]c2ccccc2c1=O,"inconclusive: 0.501 µM [inhibitor, full curve, poor fit]"
15,Cc1ccc(OCC(=O)N/N=C/C=C/c2ccco2)cc1,"inconclusive: 28.2 µM [inhibitor, single point]"
16,O=C(N/N=C/c1ccccc1O)C1SCCCS1,inactive
17,N#C/C(=C/c1cn(-c2ccccc2)nc1-c1cccc(S(=O)(=O)N2CCCC2)c1)C(=O)NCc1ccco1,"inconclusive: 25.1 µM [inhibitor, single point]"
18,COc1ccccc1NC(=O)NCCCN1CCN(c2cccc(Cl)c2)CC1,"inconclusive: 39.8 µM [inhibitor, single point]"
19,O=C(CSc1nc2ccccc2s1)N/N=C/c1cc([N+](=O)[O-])ccc1O,"inconclusive: 25.1 µM [inhibitor, single point]"
20,c1ccc(Cn2nnc3c(Nc4ccc5c(c4)OCO5)nc(C4CC4)nc32)cc1,"inconclusive: 2.24 µM [inhibitor, single point]"
21,CC(Cc1nnc(N)s1)c1ccccc1 (configuration not stated),inactive
22,COc1ccccc1N1CCN(/N=C/c2c(C)nn(-c3ccccc3)c2C)CC1,"inconclusive: 15.8 µM [inhibitor, partial curve]"
23,CCCCC[n+]1ccn(C2=C([O-])c3ccccc3C(=O)/C2=N\S(=O)(=O)c2ccc(Br)cc2)c1,"inconclusive: 4.47 µM [inhibitor, single point]"
24,CC1(C)OC(C)(C)/C(=C/Nc2ccc(O)cc2)C1=O,"inconclusive: 22.4 µM [inhibitor, partial curve]"

row,Structure (SMILES),Potency
1,CN(C)C(=O)CSc1nc(-c2ccccc2)c(-c2ccccc2)o1,"inconclusive: 14.1 µM [inhibitor, partial curve]"
2,O=S1(=O)Nc2c(ccc3cccnc23)-c2ccccc21,active: 11.2 µM
3,c1ccc2c(c1)NCCS2,inactive
4,CCn1c(O)c(N=NC(=O)CNC(=O)c2ccco2)c2ccccc21,inactive
5,Cc1ccccc1CSc1nnc(-c2ccccn2)n1N,"inconclusive: 31.6 µM [inhibitor, single point]"
6,CC(=O)Nc1ccc(Nc2cc(C)nc(Nc3ccc(NC(C)=O)cc3)n2)cc1,"inconclusive: 39.8 µM [inhibitor, single point]"
7,O=C(c1cccs1)N1CCN(CCc2ccccc2)CC1,inactive
8,COC(=O)c1ccc(N2CCN(CC(=O)c3ccc(-c4ccccc4)cc3)CC2)c([N+](=O)[O-])c1,inactive
9,Cc1ccoc1C(=O)NCCNc1ccc(Cl)cc1[N+](=O)[O-],inactive
10,Cc1ccc(S(=O)(=O)N2c3ccccc3-c3c(ssc3=S)C2(C)C)cc1,"inconclusive: 31.6 µM [inhibitor, partial curve]"
11,COc1cc(CN2CCN(C(O)(c3ccccc3)c3ccccc3)CC2)cc(OC)c1OC,inactive
12,O=C(O)c1cccc(NC(=S)N/N=C/c2ccccn2)c1,active: 20 µM
13,CSc1ccc(Cl)c(C(=O)N(C)CC(=O)Nc2ccc(N3CCOCC3)cc2)c1,inactive
14,CC(=O)Nc1sc(NC(=O)c2ccccc2)nc1-c1cccs1,inactive
15,CCC(CO)Oc1cc(NCc2cccc(Cl)c2)c2ncn(C(C)C)c2c1 (configuration not stated),"inconclusive: 39.8 µM [inhibitor, single point]"
16,C=CC1=C(C(=O)O)N2C(=O)[C@@H](NC(=O)/C(=N\OCC(=O)O)c3csc(N)n3)[C@H]2SC1,"inconclusive: 31.6 µM [inhibitor, single point]"
17,COc1ccccc1OCc1nc(-c2cccc([N+](=O)[O-])c2)no1,"inconclusive: 0.631 µM [inhibitor, full curve, poor fit]"
18,CC(=O)Nc1ccc(C(=O)Cn2nnc3ccccc3c2=O)cc1,"inconclusive: 6.31 µM [inhibitor, single point]"
19,COc1ccccc1Nc1ccc(C(=O)NCc2cccs2)cn1,inactive
20,COc1cc(C(=O)NCc2ccc(S(N)(=O)=O)cc2)ccc1OCC(=O)N1CCOCC1,inactive
21,CN(C)S(=O)(=O)c1cc(NC(=O)CSc2cccc[n+]2[O-])ccc1Cl,inactive
22,Cc1ccc(NC(=O)CN2CCC(NC(=O)C3CCCCC3)CC2)c(Br)c1,"inconclusive: 39.8 µM [inhibitor, single point]"
23,N#CC(=C1CCCC1)c1nc(-c2ccccc2)cs1,inactive
24,Oc1ccc(CN2CCCCC2)c2cccnc12,"inconclusive: 25.1 µM [inhibitor, single point]"

row,Structure (SMILES),Potency
1,O=[N+]([O-])c1cc([N+](=O)[O-])c2cccnc2c1Oc1ccccc1O,"inconclusive: 31.6 µM [inhibitor, single point]"
2,Cc1ccc(-c2[nH]c(-c3ccccc3)nc2SCC(=O)NCC2CCCO2)cc1 (configuration not stated),"inconclusive: 7.08 µM [inhibitor, single point]"
3,COc1ccc(OC)c(NC2=C(Cl)C(=O)N(Cc3ccccc3)C2=O)c1,"inconclusive: 3.55 µM [inhibitor, single point]"
4,CN1C(=O)CC(c2ccco2)Sc2ccccc21 (configuration not stated),inactive
5,O=C(Cc1cccc(NC(=O)C2CCCN(C(=O)C3CCCCC3)C2)c1)Nc1cccc(C(=O)N2CCCC2)c1 (configuration not stated),inactive
6,Cc1ccc2c(c1)C(=O)C(=O)N2CCCOc1ccccc1,"inconclusive: 28.2 µM [inhibitor, single point]"
7,Cn1c(CCNC(=O)c2cccs2)nnc1SCC(=O)N1CCN(c2ccccc2)CC1,"inconclusive: 6.31 µM [inhibitor, single point]"
8,CCOC(=O)CSc1nnc(CNc2cccc(Cl)c2)n1C,inactive
9,Cc1cc(C(=O)CC#N)c(C)n1-c1c(C)n(C)n(-c2ccccc2)c1=O,"inconclusive: 5.62 µM [inhibitor, partial curve]"
10,Cc1ccc(C)n1-c1ccc(C#N)cn1,"inconclusive: 0.158 µM [inhibitor, full curve, poor fit]"
11,NC(=O)C1CCN(c2nc(-c3ccc4ccccc4c3)cs2)CC1,inactive
12,N/C(Cn1cncn1)=N\NC(=O)c1ccc(Cl)cc1Cl,inactive
13,Cc1oc(-c2cccs2)nc1CS(=O)CC(=O)NC1CCCCCC1 (configuration not stated),inactive
14,CCN(c1ccccc1)S(=O)(=O)c1ccc(Oc2ccc(-n3ccnc3)cc2)nc1,inactive
15,CCN1C(c2ccccc2)=C(c2ccccc2)S/C1=C/C=C1\SC(=S)N(C)C1=O,"inconclusive: 7.08 µM [inhibitor, single point]"
16,COc1cc(C2NC(=O)NC(c3ccccc3)=C2C(C)=O)cc([N+](=O)[O-])c1O (configuration not stated),"inconclusive: 5.01 µM [inhibitor, full curve, poor fit]"
17,CCOC(=O)Cc1csc(SCC(=O)/C(C#N)=C(\C)N)n1,"inconclusive: 6.31 µM [inhibitor, single point]"
18,CC(C)=NNc1cc([N+](=O)[O-])cc2c1C(=O)N(C)S2=O (configuration not stated),"inconclusive: 8.91 µM [inhibitor, full curve]"
19,[O-]c1c[n+](-c2ccc(-[n+]3cc([O-])on3)cc2)no1,"inconclusive: 39.8 µM [inhibitor, single point]"
20,Cc1ccc(OCCCCNC(C)c2ccccc2)c(C)c1 (configuration not stated),inactive
21,Cc1ccc(C)c(NC(=S)c2ccccn2)c1,"inconclusive: 35.5 µM [inhibitor, single point]"
22,CC(=O)Nc1cccc(/C(C)=N/NC(=O)c2ccc(Cl)cc2Cl)c1,"inconclusive: 7.08 µM [inhibitor, single point]"
23,CCc1nnc(NC(=O)c2cc(-c3ccco3)nc3ccccc23)s1,"inconclusive: 25.1 µM [inhibitor, partial curve]"
24,CCOCCCNC(=O)C(c1ccccc1)N(Cc1ccc2c(c1)OCO2)C(=O)CNC(C)=O (configuration not stated),"inconclusive: 6.31 µM [inhibitor, single point]"
